Source: PubChem BioAssay AID292 (DTP/NCI, 2004)
Toxic doses and inconclusive results are not listed. A number of entries come with more than one value. They are shown here; other results are not. The source may hold further records. The records of an entry are repeats across runs, samples, wells, individuals or studies.

System: B6C3F1 mice, ip Sarcoma M5076, median survival T/C
Assay: NCI In Vivo Anticancer Drug Screen. Data for tumor model Sarcoma M5076 (intraperitoneal) in B6C3F1 mice
Details: endpoint: median survival time, schedule: Q04DX004 (ip), higher = longer survival
Description: The antitumor activity of compounds was measured in mice bearing transplantable tumors. Survival or tumor size were measured and the results are expressed as the measurement made in the treated group (T) divided by the measurement made in the vehicle treated control group (C). The tumor model used in this assay is Sarcoma M5076 (intraperitoneal) in B6C3F1 mice

[1] = dose: 1.25 mg/kg/injection, vehicle: Klucel (hydroxypropylcellulose) (HPC)

COc1c(O)cc2c(c1OC)-c1ccc(SC)c(=O)cc1C(NC(C)=O)CC2 (stereo unspecified)
T/C [1]: 120 % of control and 151 % of control
T/C (dose: 2.5 mg/kg/injection, vehicle: Klucel (hydroxypropylcellulose) (HPC)): 118 % of control and 181 % of control

CCOC(=O)NC1CCc2cc(OC)c(OC)c(OC)c2-c2ccc(OC)c(=O)cc21 (stereo unspecified)
T/C [1]: 123 % of control and 153 % of control

CN(C)N=Nc1ccc(C(=O)O)cc1
T/C (dose: 200.0 mg/kg/injection, vehicle: saline): 94 % of control, 196 % of control, 200 % of control

CC(C)NC(=O)OCc1c(COC(=O)NC(C)C)c(-c2ccc(Cl)c(Cl)c2)n2c1CCC2
T/C (dose: 300.0 mg/kg/injection, vehicle: saline with Tween-80): 91 % of control and 196 % of control

C=C1C(O)C2(O)OCC34C(CC5C(C)=CC(=O)C(O)C5(C)C23)OC(=O)C(OC(=O)C/C=C(\C)CCCCC)C14 (stereo unspecified)
T/C (dose: 8.0 mg/kg/injection, vehicle: saline + alcohol): 122 % of control and 164 % of control

CC1(CO)C(O)CCC2(C)C1CCC1CC3CC12CCC3(O)CO (stereo unspecified)
T/C (dose: 240.0 mg/kg/injection, vehicle: Klucel (hydroxypropylcellulose) (HPC)): 124 % of control and 161 % of control

Cc1cccc(OCC(O)CN2CC2)c1 (stereo unspecified)
T/C (dose: 100.0 mg/kg/injection, vehicle: saline with Tween-80): 111 % of control, 114 % of control, 153 % of control

O=C1N[C@@H]2C(=C[C@H](O)[C@@H](O)[C@H]2O)c2cc3c(c(O)c21)OCO3
T/C (dose: 6.0 mg/kg/injection, vehicle: saline with Tween-80): 116 % of control, 159 % of control, 160 % of control

COc1cc(C2c3cc4c(cc3[C@@H](OC3OC5CO[C@@H](C)OC5C(O)C3O)[C@H]3COC(=O)C23)OCO4)cc(OC)c1OC (stereo partly specified)
T/C (dose: 400.0 mg/kg/injection, vehicle: suspension in saline): 116 % of control and 176 % of control

C=C1COC(O)(C2OCOC(C3CC(=O)NC(=O)C3)C2O)C1C (stereo unspecified)
T/C (dose: 32.0 micrograms/kg/injection, vehicle: water): 114 % of control, 153 % of control, 170 % of control

BrC[P+](CBr)(CBr)CBr
T/C (dose: 31.25 mg/kg/injection, vehicle: saline with Tween-80): 120 % of control and 154 % of control

CNC(=S)SC1=NS(=O)(=O)c2ccccc2N1
T/C (dose: 288.0 mg/kg/injection, vehicle: Klucel (hydroxypropylcellulose) (HPC)): 109 % of control and 160 % of control

CN(C)CCNc1ccc(CO)c2sc3ccc(O)cc3c(=O)c12
T/C (dose: 200.0 mg/kg/injection, vehicle: saline with Tween-80): 112 % of control and 170 % of control

Cc1cc2c(C(C)C)c(O)c(O)c(C=NCCO)c2c(O)c1-c1c(C)cc2c(C(C)C)c(O)c(O)c(C=NCCO)c2c1O
T/C (dose: 144.0 mg/kg/injection, vehicle: saline with Tween-80): 121 % of control and 160 % of control

CCN(CC)CCn1[nH]c2c3ccc(=O)cc3sc3c(NCCN)ccc1c32
T/C (dose: 25.0 mg/kg/injection, vehicle: water): 89 % of control, 173 % of control, 286 % of control
